Some test systems named below: WM115; WM1716; WM1745; WM3526; WM3619; WM451Lu.
What all share (experiment): cell count relative to DMSO control; melanoma cells; higher = more viable cells
Holding throughout (details): library dose: low library concentration; 72 h

Our source for the cell count values is the supplement of paper PMC4604168 (melanoma cell lines).

Some of the results follow. Most values come without repeats; read them as rough.
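Further: cell number obtained by counting DAPI-stained nuclei in high-throughput microscope images with image analysis software, screen run in 1,536-well plates.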

Consider `Cc1cc(Nc2cc(N3CCN(C)CC3)nc(/C=C/c3ccccc3)n2)n[nH]1` + C=CCNC1=C2C[C@@H](C)C[C@H](OC)[C@H](O)[C@@H](C)/C=C(\C)[C@H](OC(N)=O)[C@@H](OC)/C=C\C=C(/C)C(=O)NC(=CC1=O)C2=O [Tanespimycin] (first compound 0.04 µM, partner dose 0.002 µM), for which the cell count came out at 86.2% in the test with WM115; 98.9% with WM1716; 100% with WM1745; 96.1% with WM3526; 105% in the test on WM3619; 113% in the test with WM451Lu.
In the case of `COc1ccc(C2=N[C@@H](c3ccc(Cl)cc3)[C@@H](c3ccc(Cl)cc3)N2C(=O)N2CCNC(=O)C2)c(OC(C)C)c1` [Nutlin-3] + CS(=O)(=O)CCNCc1ccc(-c2ccc3ncnc(Nc4ccc(OCc5cccc(F)c5)c(Cl)c4)c3c2)o1 [lapatinib] (first compound 0.1 µM, partner dose 0.8 µM), the cell count in the test with WM115 came out at 90.4%; in the test on WM1716, 137%; with WM1745 it was 121%; in the test with WM3526 it was 102%; in the test on WM3619, 108%; in the test on WM451Lu, 122%.
On to `Cc1cn(-c2cc(NC(=O)c3ccc(C)c(Nc4nccc(-c5cccnc5)n4)c3)cc(C(F)(F)F)c2)cn1` [nilotinib] + Nc1cccc2c1CN(C1CCC(=O)NC1=O)C2=O [lenalidomide] (first compound 0.2 µM, partner dose 1 µM), for which the cell count with WM115 came out at 97.6%; in the test with WM1716 it was 91.2%; in the test with WM1745, 81.6%; with WM3526, 100%; in the test with WM3619 it was 110%; with WM451Lu it was 97.2%.
As for `Cc1cn(-c2cc(NC(=O)c3ccc(C)c(Nc4nccc(-c5cccnc5)n4)c3)cc(C(F)(F)F)c2)cn1` [nilotinib] + C=C(c1ccc(C(=O)O)cc1)c1cc2c(cc1C)C(C)(C)CCC2(C)C [Bexarotene] (first compound 0.2 µM, partner dose 2 µM), the cell count in the test on WM115 was 143%; in the test on WM1716, 95.9%; in the test on WM1745, 78%; in the test on WM3526, 92.3%; in the test on WM3619, 81.2%; with WM451Lu, 78.3%.
Consider `Cc1cc(Nc2cc(N3CCN(C)CC3)nc(/C=C/c3ccccc3)n2)n[nH]1` + CC(=O)c1c(C)c2cnc(Nc3ccc(N4CCNCC4)cn3)nc2n(C2CCCC2)c1=O [palbociclib] (first compound 0.04 µM, partner dose 0.04 µM), for which the cell count was 82.7% in the test on WM115; 75.9% in the test with WM1716; 66.4% with WM1745; 63% in the test with WM3526; 76.8% in the test on WM3619; 90.5% in the test with WM451Lu.
For the compound `Cc1cn(-c2cc(NC(=O)c3ccc(C)c(Nc4nccc(-c5cccnc5)n4)c3)cc(C(F)(F)F)c2)cn1` [nilotinib] + O=C(Nc1cccc(Cl)c1)Nc1ncc(CCNc2ncnc3ccsc23)s1 [SNS314] (first compound 0.2 µM, partner dose 0.0008 µM), the cell count in the test on WM115 is 81%; in the test on WM1716, 106%; in the test on WM1745 it was 79.9%; in the test on WM3526 it was 87.9%; in the test on WM3619 it was 90.1%; in the test on WM451Lu, 153%.
Turning to `Cn1c(=O)n(-c2ccc(C(C)(C)C#N)cc2)c2c3cc(-c4cnc5ccccc5c4)ccc3ncc21` + C=CCNC1=C2C[C@@H](C)C[C@H](OC)[C@H](O)[C@@H](C)/C=C(\C)[C@H](OC(N)=O)[C@@H](OC)/C=C\C=C(/C)C(=O)NC(=CC1=O)C2=O [Tanespimycin] (first compound 0.004 µM, partner dose 0.002 µM), the cell count in the test with WM115 came to 83.9%; with WM1716, 93.8%; in the test with WM1745 it was 88.6%; in the test with WM3526 it was 86.2%; in the test with WM3619, 78.7%; in the test with WM451Lu, 113%.
As to `CC(C)C[C@H](NC(=O)[C@H](Cc1ccccc1)NC(=O)c1cnccn1)B(O)O` [Bortezomib] + COc1ccc(-c2ccc3c(N4CCOCC4)nc(N4C[C@@H](C)O[C@@H](C)C4)nc3n2)cc1CO [KU0063794] (first compound 0.001 µM, partner dose 0.02 µM), the cell count in the test on WM115 came out at 94.1%; in the test on WM1716, 18%; with WM1745, 56%; with WM3526, 85.2%; with WM3619, 8.63%; with WM451Lu it was 84.9%.
Regarding `CC(C)C[C@H](NC(=O)[C@H](Cc1ccccc1)NC(=O)c1cnccn1)B(O)O` [Bortezomib] + OCc1c[nH]c2ccccc12 [Indole-3-carbinol] (first compound 0.001 µM, partner dose 0.8 µM), the cell count was 106% in the test with WM115; 28% in the test on WM1716; 85.8% in the test on WM1745; 96% in the test on WM3526; 28% with WM3619; 71.9% in the test on WM451Lu.
For the compound `CC(C)C[C@H](NC(=O)[C@H](Cc1ccccc1)NC(=O)c1cnccn1)B(O)O` [Bortezomib] + CN(C)S(=O)(=O)c1ccc2c(c1)/C(=C/c1cc3c([nH]1)CCCC3)C(=O)N2 [SU6656] (first compound 0.001 µM, partner dose 0.4 µM), the cell count in the test on WM115 came out at 70.8%; with WM1716 it was 33.8%; in the test with WM1745, 47.8%; with WM3526, 133%; with WM3619 it was 18.8%; in the test with WM451Lu, 102%.
As for `CC(C)C[C@H](NC(=O)[C@H](Cc1ccccc1)NC(=O)c1cnccn1)B(O)O` [Bortezomib] + O=C(O)c1ccc2c(c1)nc(Nc1cccc(Cl)c1)c1ccncc12 [CX4945] (first compound 0.001 µM, partner dose 0.4 µM), the cell count with WM115 was 98.7%; in the test with WM1716 it was 29.2%; with WM1745, 65.2%; with WM3526, 69.7%; in the test with WM3619, 13%; in the test on WM451Lu, 82.5%.
